SMILES strings stand for the structures. The full ranking holds about 2,300 compounds; the median of “protection from cell death (ATP increase)” is about -18, and the highest 2% start at about 170. This is one part of the list. Results with a measured potency or affinity are listed apart. The source made no clear call on entries shown without one.

This test can be described thus: beta cell apoptosis inhibitors, cytokine rescue, dose response, luminescence, retest (AID 449756). As to conditions: INS-1E rat beta cells, ATP luminescence 48 h; at 26 µM (top of the series) unless noted.
Consider `COc1cc2c(cc1OC)[C@@H]1C(=O)c3ccc4c(c3O[C@@H]1CO2)C[C@H](C(C)C)O4`, for which the protection from cell death (ATP increase) was determined as 145%. Under `c1ccc2c3c([nH]c2c1)C1(CCNCC1)NCC3` stands -19.9%; under `CC(C)(C)c1ccc(CSc2cnn(C(C)(C)C)c(=O)c2Cl)cc1`, 153%.

With `NC(N)=N/N=C/c1cn(-c2ccccc2)nc1-c1cccs1`, the protection from cell death (ATP increase) is -43.7% [at 6 µM]. Under `CCN1/C(=C\C=C\C2=[N+](CC)c3ccccc3C2(C)C)C(C)(C)c2ccccc21` stands 146%.
